Experimental data as given in the supplement of paper PMC11417369.
± gives the standard deviation of the averaged measurements. This is one part of the list.

The sequences below were run on PfAP2-LT AP2 domain (GST-tagged) (assay: gcPBM binding intensity (ln(normalized median fluorescence intensity)); higher = stronger DNA binding).
Outline: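 The binding buffer was 1× PBS containing 1% milk, 0.2 mg/ml BSA, 0.5% salmon testes DNA and 0.03% Triton X-100. In it, GST-tagged P. falciparum DNA-binding domains expressed in E. coli were applied for 1 h to an Agilent 4 × 180k array of primer-extended double-stranded 36-bp intergenic genomic probes plus negative controls. Binding intensity, read with Alexa488 anti-GST antibody and a 488 nm scan, is the highest Masliner-normalised natural-log median intensity across replicate spots of either probe orientation.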

Sequence	gcPBM binding intensity (ln)
CCCCTTAATTAAAGGAGTACTATTTGTGAATAATAT [XGTACX_site4715]	9.13 ± 0.11
TTTATGTAGGAACTAACACACATTGTAAGATTCAGA [CACACA_site1998]	8.8 ± 0.39
GGAACTTTTGGAGGTGCATGCGGAGCAATCTTTTCA [TGCATGCA_site454]	8.69 ± 0.4
TTTAAACCTTAATATTGTACGCAAAAAAAAAAAGAA [XGTACX_site3757]	8.54 ± 0.46
TATTAATAATTAAGTTGTACATTAATTAATATACTG [XGTACX_site6994]	8.56 ± 0.46
TTTAATATTAATAATTGTACATTTTCATAAATACGC [XGTACX_site2837]	8.62 ± 0.54
TAAAGGCAAACAAACACACACACATATATACATATA [CACACA_site2123]	9.87 ± 0.42
CCAATACTGTTTAAATGTACAAGTAGGAGGTTAATT [XGTACX_site7260]	8.77 ± 0.34
AAAAATTAACAAAAGGTGCAAACAAATAGTGGTTTT [GTGCAC_site9998]	9.01 ± 0.49
AAAATTTAATATAATGCACACATAAAAAAAAATTCA [CACACA_site8640]	8.85 ± 0.53
TCCTGCCTCTCTTTGGTGCGTTGTAACCCTCGAGGA	8.78 ± 0.56
ATATTAATATACATATGTACATATATATATATATAT [XGTACX_site7425]	9.47 ± 0.057
TAAATTATTTATAAAGCACACAAGAAAAAATAAAAT [CACACA_site2132]	8.89 ± 0.45
ATATATATGTATATGTGTACTTATATTTGTCATTTT [XGTACX_site1317]	9.01 ± 0.47
AAAAAAATTAAACACACACACACATATATATATATA [CACACA_site4718]	10.1 ± 0.27
GAACAAAAGGAATGTTGTACATAAAAAATGAAAAAT [XGTACX_site3929]	8.99 ± 0.47
AAAAAAGTAAAAAGTGCATGTAAAATATAAGTATCT [TGCATGCA_site55]	9.18 ± 0.61
TTTTTTTTTTATTTTGCACACTTCTAATTTAGTTGT [CACACA_site3429]	9.14 ± 0.44
GTTATTCTTAATTTTTGTACACATTTTTATATTATT [XGTACX_site7227]	9.1 ± 0.49
AATTCCTATAATGAGAGTACGCATTAGAACAGTAGG [XGTACX_site5721]	8.88 ± 0.29
TTGATAAAAAAAAAAAAATAAAAAAAAAATAAAAAA [XGTACX_negctrl_site480]	8.26 ± 0.61
AATAAATATATAAATACACACAAACATACAGATATA [CACACA_site6088]	9.37 ± 0.35

Sequence	gcPBM binding intensity (ln)
TTTAAAAGATAAAGACTGCACTTTAAGCACACAAAT [GTGCAC_site9752]	8.77 ± 0.33
TTTATATCGACTCTTCTTTATATAAGTTGTGATGTT [TGCATGCA_negctrl_site362]	8.89 ± 0.38
TAAAGTGTAAAGAAGGTGCTCATTATTTATTTTTTT	8.6 ± 0.33
AGTTTCCTTGAGAAAAGTACGTAATACTACATATAT [XGTACX_site818]	8.93 ± 0.43
AAAAAAGAAACAAACACACATACATACAAACAAACA [CACACA_site142]	9.57 ± 0.23
TTATACTTTTTTTCTTGGTGTAGAAAAAAAAGTTAG [CACACA_negctrl_site1207]	8.15 ± 0.35
ATATGATATATTTTATGTACATATAAAACATATATA [XGTACX_site4297]	8.64 ± 0.33
TTTATATTAGGTCTTGAACGATTTTCATCATTATTA [TGCATGCA_negctrl_site100]	8.61 ± 0.46
AATTAATGGAAACAAGTCAAATGATCTTTATGCATA [TGCATGCA_negctrl_site540]	8.62 ± 0.4
AAATTGTAGAAGCGTATTTCTCGAACTGGATGAATA [CACACA_negctrl_site1373]	8.71 ± 0.54
TAAAAACGATTTTTTGCACACACATAATAAGCAGAA [CACACA_site3870]	9.29 ± 0.37
AAAAATGATATGAGTTGTACATAAGTAAGAATTATT [XGTACX_site7089]	8.95 ± 0.47
GGACAAGTTAAACGCACACAAATATATACCCCCATA [CACACA_site4996]	9.95 ± 0.3
ACAAGTAATTAAGAGTGTACATAACTATAAATCCAA [XGTACX_site5215]	9.05 ± 0.54
TATAATAAAATATGTACACACATACACCCATATATA [CACACA_site4808]	9.25 ± 0.4
GATATGATGAGATTGATATTCATAAGAGGATTAATG [GTGCAC_negctrl_site515]	8.65 ± 0.43
TGTATGTATGTATTATTTGTTATTTTAATTTTTTTG [TGCATGCA_negctrl_site256]	8.93 ± 0.47
TTTTTTTTTTTTGTGCGTACATACCATTTTAATAAT [XGTACX_site2760]	8.73 ± 0.4
CTTTTTTCAAAACACACACACAAGAAAATATATATA [CACACA_site3109]	9.31 ± 0.3
GAGATTTATTTATGTGCACACTAGAACAATTGGATC [CACACA_site2090]	9.11 ± 0.38
AAGACATTTTTTAAGGTGCTTTGGAAAAAGGAGTAT [GTGCAC_site9816]	8.64 ± 0.39
TATTATATATCAAAATGTACATTAATTTGAGTAATT [XGTACX_site5434]	8.51 ± 0.33

Sequence	gcPBM binding intensity (ln)
GATGTGATGTATTTGGTATTTTTCGATGTTGGTAGG [CACACA_negctrl_site355]	9.15 ± 0.27
TGTTCAGTAGGGCACACACACAACAAAATAAAAAAA [CACACA_site378]	9.56 ± 0.48
TTTTTGCTATTCTATTATATATATAATATATTTTAC [CACACA_negctrl_site262]	8.79 ± 0.48
TTACCTCTTTGAAATATACACACTAATCATATCAAC [CACACA_site8778]	8.85 ± 0.47
ATGAGTTACATGGGAAAAATATATATATATATATAT [CACACA_negctrl_site579]	9.8 ± 0.23
TTGTATCCTTAATGCATGCACCAAATAACAAAAGTA	8.71 ± 0.29
TTTAAAAGATAAAACACACATACTAATAAAAAACAA [CACACA_site2556]	8.88 ± 0.47
TTGTTGTATTATTTATGTACATATGTATATGTATAT [XGTACX_site1315]	9.02 ± 0.44
TGATAAATATGGAGCACACACACATAAACATACATA [CACACA_site420]	9.86 ± 0.4
ACAGTATTTCGAGATGGTACACATATATATATATAT [XGTACX_site6880]	9.9 ± 0.13
AAAAAAAAAAAAAAAAGGGGGGGAGGGATTGAAAAA [CACACA_negctrl_site193]	9.4 ± 0.29
AATGAGGATATATACACACATACATTAAAAAAATAT [CACACA_site1849]	9.29 ± 0.46
ATTATAATTGCATATACACACAAAGGTTCATAACAA [CACACA_site7440]	8.93 ± 0.38
ACATATATAAAATAATGTACATTTTTAAGAATGCGT [XGTACX_site7654]	8.79 ± 0.42
TATATATATATATATAAGCTTATAATAAAACAAAAA [XGTACX_negctrl_site568]	8.91 ± 0.4
ATAGCAATAATGGAAAGTACAAAAAAACTTGTTATA [XGTACX_site8518]	8.79 ± 0.52
TGTATTAATAAAAATACACACATCATATTATATAAA [CACACA_site3534]	8.77 ± 0.35
CCTTTTAAGAGTTGCACACGTACAAAAAAAAAAAAA [CACACA_site3492]	8.88 ± 0.54
GGCGATATAGAACTACGTACTTATACAAATTATAAT [XGTACX_site2307]	8.76 ± 0.39
AATAATAAAAAATACGCACACATGTAAACGTATGTT [CACACA_site3336]	9.08 ± 0.38
ACACATAAATGTATATATATATAAATATATGTATGT [CACACA_negctrl_site1532]	9.12 ± 0.33
ATAAATGTTATGCATACACACTTTATACCTATTTAA [CACACA_site5967]	8.9 ± 0.4

Sequence	gcPBM binding intensity (ln)
AATCCTTACAGACACACACACACGAATAAATAAAAA [CACACA_site480]	9.68 ± 0.3
TATGTATTATCAAAAAGTACTAAAAAAAAATAATAA [XGTACX_site4703]	8.38 ± 0.5
TATATATGTATATGTGTGCACCTTATTTCTTTTATT [GTGCAC_site9513]	9.33 ± 0.4
TTATAATTTTTGAGCACACACAAGCATATATATATA [CACACA_site1798]	9.275 ± 0.05
AATAAATACATACATACATGCATACATATATCTCAA [TGCATGCA_site1040]	8.97 ± 0.4
AAAAATAAAATATATATATATATATATATATATATA [CACACA_negctrl_site58]	9.53 ± 0.29
TATTTTTATATATATACACACTTACAGATATATATT [CACACA_site5905]	8.97 ± 0.45
TGAAAAAAAAAATGCACACGCATACATATAATATGT [CACACA_site641]	9.13 ± 0.3
AAACATAAATATGAGAGTACAAAAAATATTATGAAT [XGTACX_site151]	8.96 ± 0.53
ATCTCTTAAATTTTACGTACTTATTTTATCTTCTTA [XGTACX_site8877]	9.1 ± 0.65
TTATAATATATTACAAGTTCATTCATATAATATGTT [CACACA_negctrl_site1695]	8.64 ± 0.44
TAAATAAATTTGCACTGTACGCAAAAAAAAAAAAGA [XGTACX_site8781]	8.78 ± 0.63
GTATATATATATTTATGTACTTACCTACATAATTAT [XGTACX_site4435]	9.26 ± 0.53
AAAGGGGAGATATGAACACACAAAAAAAAAATATAT [CACACA_site7378]	9.06 ± 0.65
TATATATATTTTAAATGTACTTATAAATTACCACTT [XGTACX_site5673]	8.56 ± 0.51
AATATTTACAGACATGCGCACACATAAATAAATAAT [CACACA_site8760]	9.38 ± 0.38
AAATAAAATTTTTGTTGTACTTATTTTTAGTATACT [XGTACX_site4254]	8.72 ± 0.42
AGAAAGGATATAAGCGTAGCTATATCATAAAAAATG [GTGCAC_negctrl_site332]	8.72 ± 0.53
AATAAATTAGAAGGATGTACTTTGTTTAATATAGAG [XGTACX_site1943]	8.54 ± 0.46
AGGTTATATATGAACAAAAATAAAATATTCATAGGC [TGCATGCA_negctrl_site46]	8.91 ± 0.5
TAATATAATCTGAGTGCACACAAATAAATAAACATA [CACACA_site8032]	9.16 ± 0.44
TATGCAAATTAATAATGTACGAAATATTTATAATTT [XGTACX_site2324]	8.59 ± 0.4
